# From PubChem BioAssay AID504374 (National Center for Advancing Translational Sciences (NCATS), 2011)
# Out of some 1,500 compounds screened, about 100 (6.7%) were called active. About 7% were inconclusive and are not listed. Calls come from the whole dose curve; as a rule, active = well fitted inhibition curve with a large enough effect; inconclusive = small, poorly fitted or top-dose-only effect, or effect the other way; inactive = flat fitted curve, though single readings scatter. The list shows a part of the results.
# Target: Runt-related transcription factor 1 (Homo sapiens) + Core-binding factor subunit beta (Homo sapiens) (UniProt Q01196+Q13951)
# Experiment: qHTS Assay for Compounds Blocking the Interaction Between CBF-beta and RUNX1 for the Treatment of Acute Myeloid Leukemia: Hit Validation; note: nearly all actives have a fitted effect of over 60% in size
# Conditions: AlphaScreen CBFb-His/RUNX1-biotin binding; series mostly up to 59.8 µM; activity, negative = inhibition: at the top concentration
# In short: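 AlphaScreen proximity assay: His-tagged CBF-beta and biotinylated RUNX1 (30 nM each) preincubated 20 min, then compound 15 min, then nickel and streptavidin beads 90 min, all at room temperature; signal read at […]em 440 nm.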
# % is set by controls: 0 for no effect and ±100 for the full control effect; potency is the fitted concentration of half-maximal effect.
# Chain of UniProt Q01196 (Q01196 whole entry, looked up): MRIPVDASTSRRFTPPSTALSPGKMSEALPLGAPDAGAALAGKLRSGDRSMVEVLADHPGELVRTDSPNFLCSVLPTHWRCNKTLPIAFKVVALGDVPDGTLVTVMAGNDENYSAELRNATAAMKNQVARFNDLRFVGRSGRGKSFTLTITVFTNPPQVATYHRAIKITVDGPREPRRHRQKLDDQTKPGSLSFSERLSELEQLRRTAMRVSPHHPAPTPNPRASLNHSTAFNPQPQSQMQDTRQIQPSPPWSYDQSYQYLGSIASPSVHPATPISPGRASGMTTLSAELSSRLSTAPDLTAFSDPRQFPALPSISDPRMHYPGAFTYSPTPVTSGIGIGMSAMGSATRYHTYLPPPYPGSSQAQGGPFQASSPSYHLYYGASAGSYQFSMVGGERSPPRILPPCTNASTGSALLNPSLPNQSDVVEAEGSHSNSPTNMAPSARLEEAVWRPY
# Chain of UniProt Q01196 (Q13951 whole entry, looked up): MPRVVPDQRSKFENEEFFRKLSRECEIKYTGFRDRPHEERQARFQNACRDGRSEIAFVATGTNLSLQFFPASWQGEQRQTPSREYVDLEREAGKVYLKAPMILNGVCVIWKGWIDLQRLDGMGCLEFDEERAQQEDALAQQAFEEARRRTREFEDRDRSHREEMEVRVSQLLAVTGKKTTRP
SMILES,"activity, negative = inhibition",Potency
COc1ccc(OC)c(/C=N/NC(=O)c2cc3c(OC)cc(OC)cc3[nH]2)c1,inactive: 6.82%,–
Cc1ccncc1C(N)=O,inactive: -0.629%,–
CC(=O)COc1nc2c(c(-c3ccco3)c1C#N)CCc1ccccc1-2,inactive: -7.83%,–
COc1ccc([N+](=O)[O-])c(S(=O)(=O)c2ccc(Cl)cc2)n1,inactive: -11.8%,–
COC(=O)c1ccccc1N=Nc1c(C)noc1C,inactive: -12.2%,–
CC1CC(=O)Nc2ccccc2N1S(=O)(=O)c1ccc(Cl)cc1 (stereo unspecified),inactive: -2.41%,–
CC(C)(C)c1ccc(Oc2ccc(NC(=O)c3cccs3)cn2)cc1,inactive: 4.18%,–
C=C1CC[C@H](O)C/C1=C/C=C1\CCC[C@]2(C)[C@H]1CC[C@H]2[C@@H](C)CCCC(C)C,inactive: -21.8%,–
CC(C)Nc1cc(C(C)(C)C)nc2c(-c3ccccc3)cnn12,inactive: -8.45%,–
CCOc1cc(C(=O)NCCc2ccc(S(N)(=O)=O)cc2)cc(OCC)c1OCC,inactive: -0.801%,–
CN(C(=O)Nc1ccc(Cl)cc1)n1cnc2ccccc2c1=O,inactive: -1.87%,–
C/C(=N\Nc1ccc(Cl)c(C(=O)O)c1)c1ccccn1,inactive: -5.05%,–
N#Cc1c(-c2ccccc2Cl)c2c([nH]c1=O)-c1ccccc1OC2,inactive: 4.48%,–
Cn1ncc(Br)c1NC(=O)Nc1ccc(OC(F)(F)F)cc1,inactive: -0.719%,–
Cc1ccc2[nH]cc(CCNC(=O)/C=C/c3ccco3)c2c1,inactive: -14.3%,–
Cn1cnc2c(N/N=C/c3cccs3)ncnc21,inactive: -14.8%,–
O=C(CSc1n[nH]c(=O)[nH]c1=O)N1CCCCCC1,inactive: -1.59%,–
Nc1nccc(/C=C/c2ccc(Cl)cc2)n1,inactive: -10.8%,–
O=C(CSc1nc(O)c(Cc2ccccc2)c(=O)[nH]1)c1ccccc1,inactive: -0.881%,–
CCN1CCN(c2nc3ccccn3c(=O)c2/C=C(\C#N)S(=O)(=O)c2ccccc2)CC1,inactive: 3.17%,–
Cc1ccc(Sc2ncccc2NC(=O)c2ccccc2Cl)cc1,inactive: -3.58%,–
COc1ccccc1CC(=O)Nc1cccc(C(=O)Nc2nccs2)c1,inactive: -6.81%,–
Cc1cc(=O)cc2oc3cc(N)c(-c4c(C)cc(O)cc4O)c(C)c3nc1-2,–,active: 8.88 µM
COc1ccc2[nH]c(C(=O)N3CCCN(Cc4ccc(F)cc4)CC3)cc2c1,inactive: -10.3%,–

SMILES,"activity, negative = inhibition",Potency
CCCN(CCC)C(=O)CC(c1ccccc1)c1ccco1 (stereo unspecified),inactive: 12.8%,–
Cn1cnnc1SCc1ccccc1[N+](=O)[O-],inactive: -6.48%,–
CCOC(=O)c1cn[nH]c1C(F)(F)F,inactive: -1.59%,–
Cc1cc(C)c(C#N)c(SCCN2CCOCC2)n1,inactive: 0.0944%,–
O=c1[nH]nc(N/N=C/c2ccc(Cl)cc2Cl)c(=O)[nH]1,inactive: -5.54%,–
O=C(NNC(=S)Nc1ccccc1C(F)(F)F)C1CC1,inactive: 9.35%,–
CCOC(=O)c1cn[nH]c1NC(=S)Nc1ccc(Cl)cc1,inactive: -2.56%,–
C=CCn1c(SCc2ccc(F)cc2)nnc1-c1sc2nc(C)cc(C)c2c1N,inactive: 1.13%,–
Cc1nn2c(N3CCN(CCO)CC3)c3c(nc2c1-c1ccccc1)CCCC3,inactive: 7.83%,–
CC(C)(C)C(=O)Nc1ccc(NC(=O)C(C)(C)C)cc1,inactive: 10.3%,–
COc1ccc2c(C)cc(C)nc2n1,inactive: 6.91%,–
Cc1cc(C)n2nc(N)c(N=Nc3ccccc3)c2n1,inactive: -9.08%,–
CN(C)c1ccc(N2C(=O)CC(c3ccccc3)CC2=O)cc1,inactive: -1.11%,–
CCCc1c(C(=O)O)cnn1-c1ccc(Cl)cc1,inactive: 5.98%,–
CC(=O)Oc1cc2c3c(c1)/C(=C1/SC(=S)NC1=O)C(=O)N3C(C)(C)C=C2C,inactive: -17.8%,–
Cc1nn(-c2ccccc2)c(NC(=O)c2cccs2)c(-c2ccccc2Cl)c1=O,inactive: -2.94%,–
Cc1nc(Nc2ccc(F)cc2)nc(Nc2ccc(F)cc2)c1[N+](=O)[O-],inactive: 18.1%,–
CC(C)NNC(=O)c1ccncc1,inactive: -29.6%,–
Cc1ccc(-c2nn[nH]n2)cc1Cl,inactive: 0.848%,–
CCO/C=C1\SC(=S)N(c2ccc(Cl)cc2)C1=O,inactive: -14.9%,–
CCOC(=O)c1cnn(-c2ccc(NS(=O)(=O)c3ccc(Cl)cc3)cc2)c1C(F)(F)F,inactive: -3.82%,–
Cc1nc(C)c(-c2ccnc(/N=C/NO)n2)s1,inactive: -3.29%,–
Cc1oc(S(=O)(=O)N2CCCC2)cc1C(=O)Nc1ccccc1,inactive: 3.56%,–
Cn1cnc(S(=O)(=O)Nc2ccc(OC(F)F)cc2)c1,inactive: 1.32%,–

SMILES,"activity, negative = inhibition",Potency
N[C@H](Cc1ccc(O)c(O)c1)C(=O)O,–,active: 8.91 µM
Cc1onc(-c2c(F)cccc2Cl)c1C(=O)c1ccc(F)cc1,inactive: 5.2%,–
S=c1[nH]nc([C@@H]2C[C@H]2c2ccccc2)n1-c1ccccc1Cl,inactive: -3.48%,–
CCOC(=O)c1cn2nc(Oc3ccc(NC(C)=O)cc3)ccc2n1,inactive: 0.0937%,–
CC(C)(C)OC(=O)NCCCCCC(=O)N/N=C/c1coc2ccccc2c1=O,inactive: 0.254%,–
CC(=O)Nc1ccc(CC#N)cc1,inactive: -5.15%,–
CC1=C(C)Cc2c(OC(=O)c3ccccc3)ccc(OC(=O)c3ccccc3)c2C1,inactive: -0.853%,–
Cc1cc(-n2cnc(-c3cn[nH]c3C)n2)no1,inactive: 0.0385%,–
Cn1nc(-c2ccccc2)cc1NC(=O)CCCC(=O)O,inactive: -2.32%,–
Cc1ccc(-n2c(-c3ccc(Cl)cc3)c[n+]3c2CCC3)cc1,inactive: -3.48%,–
CC1(C)CC(=O)c2cnc(N3CCc4ccccc43)nc2C1,inactive: -13.5%,–
COc1ccc(NC(=O)Oc2cc(C)ccc2C(C)C)cc1,inactive: -6.96%,–
O=C(O)/C=C/C(=O)Nc1ccc(Cl)cc1C(=O)c1ccccc1,inactive: -3.57%,–
O=C(c1ccc(Cl)cc1Cl)N1CCSCC1,inactive: -0.685%,–
Cc1cc(C)nc(S/C=C/C(=O)c2ccccc2)n1,inactive: -29%,–
O=C(c1ccccc1)c1ccc(Sc2ccc([N+](=O)[O-])cc2)cc1,inactive: 13.4%,–
CCCCNC(=O)Nc1nnc(C(C)(C)C)s1,inactive: -19.8%,–
C[C@H](N)C(=O)OCc1ccc([N+](=O)[O-])cc1,inactive: -0.667%,–
Cn1nc2sc3ccccc3n2c(=O)c1=O,inactive: 17.9%,–
CC(C)(C)c1cc(C(=O)NN)n(Cc2ccc(Cl)cc2Cl)n1,inactive: -0.295%,–
COc1ccc2[nH]c(=O)c(CN(C(=O)c3cccnc3)c3ccc(C)cc3C)cc2c1,inactive: -3.33%,–
Cc1ccnn1CC(=O)N/N=C/c1c[nH]c2ccccc12,inactive: 3.16%,–
COc1ccccc1C(=O)N1CCC(N2CCN(c3ccccc3)CC2)CC1,inactive: -0.196%,–
C=CCNC(=S)NCC,inactive: -8.82%,–

SMILES,"activity, negative = inhibition",Potency
CCCCOC(=O)CCc1c(C)n[nH]c1C,inactive: -2.54%,–
O=C(COc1ccc(Cl)cc1)N(Cc1ccco1)C1CCS(=O)(=O)C1 (stereo unspecified),inactive: -2.06%,–
O=C(O[C@@H]1OC2COC(=O)c3cc(O)c(O)c(O)c3-c3c(cc(O)c(O)c3O)C(=O)O[C@@H]([C@H]1O)[C@@H]2O)c1cc(O)c(O)c(O)c1,–,active: 0.224 µM
Cc1ccn(C)c(=N)c1,inactive: -1.05%,–
CC1CN(S(=O)(=O)c2cccc(C(F)(F)F)c2)CC(C)O1 (stereo unspecified),inactive: -0.629%,–
Clc1ccc(/C=C/c2nc(Cl)c(-c3ccc(Cl)cc3)c(Cl)n2)cc1,inactive: -3.31%,–
CCc1nc2ccccc2nc1N1CCN(S(=O)(=O)c2ccc(Cl)cc2)CC1,inactive: -3.31%,–
NC(=O)CNC(=O)c1cccc(Cl)c1,inactive: -1.53%,–
Cc1onc(-c2c(F)cccc2Cl)c1C(=O)Nc1ccccc1N1CCOCC1,inactive: -11.4%,–
CCOC(=O)C1CCCN(C(=O)Nc2c(-c3ccccc3)noc2C)C1 (stereo unspecified),inactive: 0.758%,–
O=P(O)(O)c1cc(-c2ccccc2)oc1-c1ccccc1,inactive: 0.0456%,–
Cc1ccc(S(=O)(=O)NNC(=O)c2cnn(-c3ccc(Cl)cc3)c2C(F)(F)F)cc1,inactive: -5.18%,–
COC(=O)c1c(NS(=O)(=O)c2ccccc2)csc1C,inactive: 0.851%,–
S=C(Nc1ccccc1)N1CCCN1c1ccccc1,inactive: 4.77%,–
CCOc1ccc(-c2noc(-c3cccnc3)n2)cc1OCC,inactive: -2.87%,–
Cc1ccc(/C(O)=C/C(=O)C(=O)NC23CC4CC(CC(C4)C2)C3)cc1,inactive: -5.18%,–
CCOC(=O)/C(C#N)=C/c1ccc(OC(=O)c2ccccn2)cc1,–,active: 3.86 µM
CC[C@H](C)[C@H](NC(=O)c1ccccc1)C(=O)Nc1ccc(S(=O)(=O)Nc2cc(C)nc(C)n2)cc1,inactive: 0.637%,–
CCCC1=NN(C(=O)Cc2ccc(OC)c(OC)c2)C(O)(C(F)(F)F)C1 (stereo unspecified),inactive: -1.48%,–
CCCCCCCc1c(O)nc(SCC(=O)O)[nH]c1=O,inactive: -14.1%,–
COC(=O)Cc1cccc2c(=O)c3ccccc3oc12,inactive: 1.24%,–
Clc1ccc(Nc2cc(-c3ccccc3)nc3ncnn23)cc1,inactive: -4.41%,–
COCc1cc(=O)[nH]c2c1c(-c1ccccc1)nn2C,inactive: 0.43%,–
COC(=O)[C@H](CCSC)NC(=O)Nc1cc(OC)cc(OC)c1,inactive: -12.2%,–

SMILES,"activity, negative = inhibition",Potency
O=C(Nc1ccc(Cl)cc1)Nc1ccc(C(=O)N2CCOCC2)cc1,inactive: -1.96%,–
Cc1nn(Cc2ccccc2)c(C)c1/C=N/NC(=O)c1ccncc1,inactive: 1.18%,–
Cc1cccc(C(=O)N/C(=C\c2ccc(C)o2)C(=O)O)c1,inactive: -12.8%,–
CN1C(=O)C(CC(=O)NCCc2ccccc2)N(NC(=O)c2ccc(Cl)cc2)C1=S (stereo unspecified),inactive: 0.238%,–
COc1ccccc1/C=C/C=N/n1c(-c2ccccn2)n[nH]c1=S,–,active: 11.2 µM
CC(=O)Nc1cccc(S(N)(=O)=O)c1C,inactive: 1%,–
O=S(=O)(Nc1nc(SCc2ccc(Cl)cc2)n[nH]1)c1ccccc1,inactive: -15.9%,–
O=c1[nH]nc(N2CCOCC2)c(=O)[nH]1,inactive: 0.379%,–
Cc1nc(N2CCOCC2)nc(Oc2ccccc2F)c1[N+](=O)[O-],inactive: 12.2%,–
CCc1cccc(C)c1NC(=O)N(C)C1CCCCC1,inactive: -17.7%,–
CCN(CC)C(=O)CSc1nnc2nnc3cc(OC)ccc3n12,inactive: -50.1%,–
Cc1cc(C(=O)N/N=C/c2c(C)nn(-c3ccccc3)c2C)n[nH]1,inactive: -4.32%,–
N#Cc1ccc(S(=O)(=O)N2CCCN(c3ccc(C(F)(F)F)cn3)CC2)cc1,inactive: 3.3%,–
CCOc1cccc2cc(C(N)=O)c(=N)oc12,inactive: -6.73%,–
O=S(=O)(c1cccc(F)c1)N1CCCN(c2ccc(C(F)(F)F)cn2)CC1,inactive: -0.754%,–
O=C(CSc1n[nH]c(=O)[nH]c1=O)NCC1CCCCC1,inactive: -3.15%,–
OCCNc1nc2ccccc2nc1NCCO,inactive: -2.36%,–
CCOC(=O)N1CCc2c(sc(N)c2C#N)C1,inactive: -3.97%,–
O=c1c2ccccc2c(-c2ccccc2)nn1-c1ccccc1,inactive: 1.21%,–
CCn1nc(NC(=O)Cc2ccc(OC)cc2)c2cc3cc(C)ccc3nc21,inactive: -2.53%,–
